Results from PubChem BioAssay AID686978 (National Center for Advancing Translational Sciences (NCATS), 2013).
“And” between values parts separate entries of the source, which are not always exact repeats. Equal entries are not always repeated. In all, about 420,000 compounds went through this assay and about 64,000 (15%) were called active. Inconclusive results, whose numbers are uncertain, are shown with a selection of clear calls. The call rests on the fitted dose curve; in most records, active means well fitted inhibition curve with a large enough effect; inconclusive means small, poorly fitted or top-dose-only effect; inactive means flat fitted curve, though single readings scatter. Potencies of inconclusive entries are left out as doubtful fits.

Experiment: qHTS for Inhibitors of human tyrosyl-DNA phosphodiesterase 1 (TDP1): qHTS in cells in absence of CPT; further: nearly all actives have a fitted effect of over 55% in size
Details: DT40 Tdp1-/- hTDP1 cells, no CPT, ATP luminescence, 48 h; activity change, negative = growth inhibition: at 46.2 µM (top of the series) unless noted
Method in brief: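 A cellular qHTS used chicken DT40 cells lacking endogenous Tdp1 but carrying stably transfected human TDP1. Compounds were applied without camptothecin, and cell growth kinetics were judged by ATP-dependent luminescence after ≥48 hr.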
On the % scale 0 is the no-effect control and ±100 the full control effect; potency means the concentration at half of the fitted maximal effect; tags describe the fitted curve by direction and shape.

SMILES | Potency | activity change, negative = growth inhibition
NC(=O)c1ccsc1NC(=O)COC(=O)/C=C/c1ccccc1 | active: 18.4 µM | 
Cc1ccc(S(=O)(=O)c2nc(-c3ccccc3)oc2N2CCCCCC2)cc1 | active: 20.6 µM | 
O=C(C1CCN(C2CCN(C/C=C/c3ccccc3)CC2)CC1)N1CCOCC1 | inconclusive [inhibitor, partial curve] | 
O=C1COc2ccc(C(=O)CSc3nnc(-c4cccs4)n3Cc3ccccc3)cc2N1 | inconclusive [inhibitor, partial curve] | 
O=C(CCNS(=O)(=O)c1ccc(Br)cc1)N1CCCCCCC1 | inconclusive [inhibitor, partial curve] | 
CCN(CC)CCNS(=O)(=O)c1ccc(/C=C/C(=O)O)cc1 |  | inactive: -7.55%
COCCN(Cc1nc(C2(c3ccc(C)cc3)CCCC2)no1)C(C)C | inconclusive [inhibitor, single point] | 
CSc1cccc(NC(=O)CCCOc2ccc(Cl)cc2C)c1 | inconclusive [inhibitor, single point] | 
O=C(Nc1ccccc1N1CCN(c2ccccc2)CC1)C1CCCCC1 |  | inactive: -16.9%
CCCNC(=O)c1ccccc1NC(=O)COc1cccc2c1OC(C)(C)C2 | active: 18.4 µM | 
CC(C)(C)OC(=O)CNC(=O)c1nc[nH]c1C(=O)N1CCN(C(=O)OC(C)(C)C)CC1 |  | inactive: -1.28%
COc1ccc(-c2nnc3sc(COc4ccc(C)cc4)nn23)cc1 | inconclusive [inhibitor, single point] | 
CNS(=O)(=O)c1ccc2nc(NC(=O)c3ccc(N4C(=O)CCC4=O)cc3)sc2c1 | active: 20.6 µM | 
Cc1ccc(C(=O)NNC(=O)c2cc3ccccc3cc2O)cc1 | inconclusive [inhibitor, single point] | 
COc1ccc(CC(=O)OCC(=O)Nc2ccc(Cl)cc2C)cc1 |  | inactive: -1.23%
N#Cc1ccc(C=NN2CCCCCC2)cc1 | inconclusive [inhibitor, single point] | 
Cc1c2cnccc2c(C)c2c1oc1ccccc12 | active: 23.1 µM | 
O=C(c1ccc2c(c1)OCO2)N1CCC2(CC1)Oc1ccc(Cl)cc1C(=O)C21CC(c2ccccc2)=NO1 (stereo not drawn) |  | inactive: -16%
COc1ccc(/C=C/c2onc(C)c2S(=O)(=O)N2CCC(C(=O)N3CCC(C)CC3)CC2)cc1 | active: 16.4 µM | 
CC(=O)Nc1cc(-c2cccc(C(=O)N(C)C)c2)cn2c(-c3ccccc3)cnc12 | inconclusive [inhibitor, single point] | 
Cc1cc(N)n2nc(C)c(-c3ccc(Cl)cc3)c2n1 | inconclusive [inhibitor, single point] | 
O=C1Nc2c(c(=O)[nH]c(=O)n2Cc2ccccc2)C1(NS(=O)(=O)c1ccccc1)C(F)(F)F (stereo not drawn) |  | inconclusive: -20.8% [inhibitor]
Cc1ccc(C)c(NC(=O)COC(=O)CC2c3ccccc3CCN2S(=O)(=O)c2ccc(F)cc2)c1 (stereo not drawn) | inconclusive [inhibitor, partial curve] | 
CCC(CO)Oc1cc(NC(=O)c2ccccc2N)c2ncn(C(C)C)c2c1 (stereo not drawn) | inconclusive [inhibitor, single point] | 
COc1ccc2[nH]c3c(=S)nc[nH]c3c2c1 | inconclusive [inhibitor, single point] | 

SMILES | Potency | activity change, negative = growth inhibition
COc1ccc(-c2nc(C#N)c(NCCCn3ccnc3)o2)cc1OC |  | inactive: -2.79%
COc1cccc(C(=O)NCC(c2ccc(N(C)C)cc2)N2CCOCC2)c1OC (stereo not drawn) | active: 16.4 µM | 
O=C(c1ccc2c(Cl)c3c(nc2c1)CCCC3)N1CCC(N2CCCCC2)CC1 | inconclusive [inhibitor, single point] | 
CC1CC(C)CN(CC(=O)NNC(=O)COc2ccc(Cl)cc2)C1 (stereo not drawn) |  | inactive: -4.03%
CN(C)c1ccc(C(c2ccc(N(C)C)cc2)C(O)c2ccccc2)cc1 (stereo not drawn) | inconclusive [inhibitor, single point] | 
COc1ccccc1CN1C[C@@H]2C[C@@H](c3cccc(C)n3)N3CCC[C@@]23C1=O |  | inactive: -20.5%
Cc1cccc(N2CCN(C(=O)c3ccc(-n4cncn4)c([N+](=O)[O-])c3)CC2)c1C |  | inactive: -26%
O=C(CC1S/C(=N/N=C/C=C/c2ccccc2)NC1=O)Nc1ccc(C(=O)O)cc1 (stereo not drawn) | inconclusive [inhibitor, single point] | 
Cc1cc(=O)oc2c3c(cc(OCC(=O)NCc4ccccc4)c12)OC(C)(C)CC3 | inconclusive [inhibitor, single point] | 
CCOC(=O)c1c(S(=O)(=O)N2CCCC(C(=O)Nc3cc(C)ccc3OC)C2)c(C)n(C)c1C (stereo not drawn) | inconclusive [inhibitor, partial curve, poor fit] | 
CCN(CC(=O)Nc1c(F)cccc1F)C(=O)c1c(-c2ccccc2Cl)noc1C | inconclusive [inhibitor, single point] | 
COc1ccc(N2CCN(C(c3cccs3)C(C)NC(=O)c3ccco3)CC2)cc1 (stereo not drawn) | inconclusive [inhibitor, single point] | 
OC(COc1ccc(OCC(O)CN2CCCCC2)cc1)CN1CCCCC1 (stereo not drawn) | inconclusive [inhibitor, partial curve, poor fit] | 
CC(C)c1ccc(/C=N/n2nnnc2Nc2ccccc2)cc1 | inconclusive [inhibitor, partial curve, poor fit] | 
CCc1ccc(N2CC(C)Cn3c2nc2c3c(=O)[nH]c(=O)n2C)cc1 (stereo not drawn) | inconclusive [inhibitor, single point] | 
COc1ccc(NC(=O)C2Cc3c(-c4ccc5c(c4)OCO5)ccnc3O2)cc1OC (stereo not drawn) | active: 8.2 µM | 
C[C@H](NC(=O)[C@@H]1Cc2ccccc2CN1)C(=O)NC1CCCC1 |  | inactive: 2.5%
Cc1cc(SCC(=O)c2cccs2)n2nc(C)c(-c3ccccc3)c2n1 | inconclusive [inhibitor, single point] | 
Cc1ccn2c(NCc3ccco3)c(-c3ccccc3)nc2c1 | active: 11.2 µM | 
COc1ccc(-c2csc(NC(=S)NC(=O)/C=C/c3ccccc3)n2)cc1Br | active: 23.1 µM | 
COc1cccc(C2=NN(C(C)=O)C(c3cn(-c4ccccc4)nc3-c3cccs3)C2)c1 (stereo not drawn) |  | inactive: 13%
COc1ccc(C(=O)NCCS(=O)(=O)N2CCN(Cc3ccccc3)CC2)cc1 | active: 29.1 µM | 
Cc1ccc2cc(CN(Cc3ccco3)C(=O)c3ccccc3)c(=O)[nH]c2c1C | inconclusive [inhibitor, partial curve] | 
Cc1cc(C)n(-c2nc3c(c(=O)[nH]c(=O)n3C)n2CC(O)COc2ccccc2)n1 (stereo not drawn) | inconclusive [inhibitor, single point] | 
Cc1ccc(NC(=O)CCNC(=O)c2ccc(Br)cc2)cc1S(=O)(=O)N1CCCCCC1 | active: 16.4 µM | 

SMILES | Potency | activity change, negative = growth inhibition
O=C(CSc1nnc(Cc2ccccc2)o1)c1ccc2c(c1)OCO2 |  | inactive: -20.5%
Cc1ccc(S(=O)(=O)N2CC=C(c3ccc(F)cc3)CC2)cc1 | inconclusive [inhibitor, single point] | 
O=C(Cc1cccs1)N1CCCC(c2nc3c(nnn3Cc3ccc(F)cc3)c(=O)[nH]2)C1 (stereo not drawn) |  | inactive: 0.734%
CC(C)N(C(=O)CSc1nnc(NC(=O)C2CCC2)s1)C(C)C |  | inactive: -9.05%
CCCCCCc1ccc(N2C[C@H](CCCCC)[C@@H](CC(=O)NCc3ccccc3)C2=O)cc1 | active: 12.6 µM and active: 18.4 µM | 
COc1ccc(Cc2c(-c3ccc(OC)c(OC)c3)nc3cc(C)c(Br)c(C)n23)c(C)c1 | inconclusive [inhibitor, partial curve, poor fit] | 
CCC(=O)NC(=S)Nc1ccc(NC(=O)COc2ccc([N+](=O)[O-])cc2)cc1 | active: 23.1 µM | 
COc1ccc(N2CCN(S(=O)(=O)c3c(C)[nH]c(C)c3C(=O)N3CCCCC3)CC2)cc1 |  | inactive: 9.45%
Cc1ccc(OCC(=O)Nc2cc(S(=O)(=O)N3CCCCC3)ccc2C)c([N+](=O)[O-])n1 |  | inactive: -12.6%
COC(=O)C(C(=O)OC)c1ncccc1NS(=O)(=O)c1ccc(C)cc1 |  | inactive: -13.7%
O=[N+]([O-])c1cccc(/C=N/n2cnnc2)c1O |  | inactive: -14.8%
O=S(=O)(Nc1ccc(-n2cnnn2)cc1)c1ccc(Cl)cc1 |  | inactive: 0.723%
CCCC(=O)Nc1nnc(SCc2cc(=O)c3cc(C)ccc3[nH]2)s1 | inconclusive [inhibitor, partial curve] | 
CCOc1cc(N2CCOCC2)c(OCC)cc1NC(=O)CN1C(=O)NC(Cc2ccccc2)C1=O (stereo not drawn) |  | inactive: -19.1%
Cc1ccccc1C1CC(=O)c2ccccc2C1C (stereo not drawn) | inconclusive [inhibitor, partial curve, poor fit] | 
O=C(O)CCC(=O)Nc1ccc(C(=O)OCC(=O)c2ccc(Cl)cc2Cl)cc1 |  | inactive: -7.45%
Cc1ccc(CSc2nc3ccncc3[nH]2)cc1 | active: 14.6 µM | 
Cc1cc(=O)[nH]c(=S)n1-c1ccccc1 |  | inactive: -2.07%
O=C(NCc1ccccc1)c1ccc(S(=O)(=O)NCc2ccco2)cc1 |  | inactive: -6.86%
Cc1ccc(N2CC(C(=O)N3CCc4ccccc4C3)CC2=O)cc1 (stereo not drawn) |  | inactive: -24.5%
COc1ccc2c(c1)c(=O)c(C(=O)c1ccc(F)cc1)cn2CC(=O)Nc1ccc(F)cc1 | inconclusive [inhibitor, single point] | 
Cc1ccc2oc(/N=C(\N)NC(=O)C(C)(C)C)nc2c1 | inconclusive [inhibitor, single point] | 
COc1ccc2[nH]cc(CCNC(=O)Nc3ccc(F)cc3)c2c1 | inconclusive [inhibitor, single point] | 
